Data as given in publication PMC11782079 (2024).

How the values were obtained:
[1] = molecular target: T1, FaRel2-Y128F (catalytically impaired toxSAS toxin) (Coprobacillus sp. D7); experiment: ITC; second site (KD2)
[2] = molecular target: T1, FaRel2-Y128F (catalytically impaired …); experiment: ITC; first site (KD1)
[3] = molecular target: T1, FaRel2-Y128F (catalytically impaired …); experiment: ITC
[4] = molecular target: T1, FaRel2-Y128F (catalytically impaired …); experiment: ITC; remark: listed apart in the source

B1: ATfaRel2-R47A (natural protein)
chain: GAMCYIIAKRFKKSGCVALKAKRGKELADFATDLQKKLGYDIQIVAITAPTAYGEYEPYKFVNSFEEFSIEASRL
Kd [1]: 0.749 µM | Kd [2]: 0.033 µM

B2: ATfaRel2 Y54A (natural protein)
chain: GAMCYIIAKRFKKSGCVALKAKRGKELADFATDLQKKLGYDIQIVAITRPTAYGEAEPYKFVNSFEEFSIEASRL
Kd [3]: 8.7 µM

B3: ATfaRel2 F59A (natural protein)
chain: GAMCYIIAKRFKKSGCVALKAKRGKELADFATDLQKKLGYDIQIVAITRPTAYGEYEPYKAVNSFEEFSIEASRL
Kd [4]: 2.1 µM
